Experimental data: the supplement of paper PMC10126150
Values marked as one replicate rest on one cluster of the flow cell; about a third of the high ones do not repeat.

Tested on: ATP
Experiment: switch fluorescence ratio, 500 uM ATP over buffer (Cy3 cluster intensity, sum of 5 cycles each) (fold (ratio)); higher = stronger signal-on switching upon ATP binding; sequences stand for … in TCGTCGGCAGCGTCAGATGTGTATAAGAGACAGTTTTTTTTTTTTTTTTTTTTTTTTT…TC
Details: aptamer strand: ATP DNA aptamer (quencher-CACCTGGGGGAGTATTGCGGAGGAAGG + anchor), 100 nM annealed; ATP concentration: 500 uM; one replicate
Method in brief: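 Imaging in selection buffer was followed by imaging after 15 min with 500 uM ATP at 22 °C, for Cy3-labelled switching-strand clusters annealed to 100 nM quencher-labelled ATP aptamer on a modified Illumina MiSeq flow-cell. Five of these buffer/ATP cycles ran, separated by NaOH stripping and re-annealing. The fluorescence ratio per cluster is summed target-cycle over summed buffer-cycle Cy3 intensity, averaged per switch-domain sequence; clusters outside 100-1000 RFU were removed.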
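Note: ATP exposure 15 min at 22 °C before imaging.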

Row | Sequence | switch fluorescence ratio
1 | TAAGCGTCGG | 1.01
2 | GAATCAAATA | 0.97
3 | TTTGGTGTGT | 0.981
4 | CCAGCTTCGT | 1.02
5 | CCTCAGTATT | 1.51
6 | TGGAGTATCT | 1.05
7 | GTGTCAACGA | 0.966
8 | AGATATATAG | 0.998
9 | GGCCTATTC | 1.02
10 | TCCGCTCAGG | 1.52
11 | CGTTGTCTTC | 0.981
12 | GGCTATAGAT | 0.97
13 | CAGTTCTGTG | 0.942
14 | GCCGCGATTT | 1.46
15 | GGAAGGGAAG | 0.978
16 | CTGCCAGGGC | 1.1
17 | CATCTGCCAG | 1.17
18 | ATTATGGGA | 1.01
19 | TTTGCTAAGT | 0.962
20 | TGTCTGCATC | 1.51
21 | GTCCTCCTA | 1.16
22 | AGAGTACGAA | 1.03
23 | ATTTTTTGA | 1.03
24 | GGAAAAACGG | 1.11
25 | GTGATTCCTA | 0.988
26 | GGCTCATGCG | 0.974

Row | Sequence | switch fluorescence ratio
27 | GAACCTATA | 1.02
28 | AAAGGATTGG | 1.01
29 | AATCTACATT | 1.05
30 | AAGCGAACTA | 1.03
31 | AATTAACAC | 1.04
32 | TTATACCGTA | 1.1
33 | CGTTGTATTG | 1.02
34 | GATCACTACC | 1.17
35 | ATCGCGGTGG | 1.01
36 | TAGTTATACT | 1.05
37 | CTAGAGCTGT | 1.1
38 | AGTATAAGA | 0.974
39 | CGAAGAGGAT | 0.986
40 | CTAACTTAAC | 1.09
41 | CAAATTCAAT | 1
42 | TTAAGTTGGC | 1.04
43 | CTTTATGGTG | 1.22
44 | CGGCCCGGCC | 1.02
45 | GTCAGAAGGG | 0.983
46 | TAGAATTGCC | 0.947
47 | ATCTCATAAG | 1.04
48 | CTTGGACGTA | 1.13
49 | CGACTACTAT | 1.07
50 | CTTTGCCGGG | 1.03
51 | AAGCGTACGT | 0.976
52 | GGTACTTTAG | 1.02

Row | Sequence | switch fluorescence ratio
53 | ATTTGTGATC | 1.03
54 | AGGCTAGATA | 0.99
55 | CAGAGCAGG | 1.02
56 | TGTCTGCTG | 1.06
57 | AGCACTATTT | 0.968
58 | ATTCACTGGT | 1
59 | GCTTCTTAAT | 0.995
60 | TCGGAAGAGC | 1.02
61 | TGAAACGGGA | 1.03
62 | CCTCTCAAAA | 3.33
63 | CATACTGATA | 1.02
64 | ATCACTCTAA | 1.08
65 | AAAGATGAAA | 1.01
66 | TCCAGTTTCG | 0.977
67 | GCAGCATTT | 1.14
68 | AGCGACCGA | 1.05
69 | TTATTCTAAA | 0.994
70 | CTTACGCCTG | 1
71 | TCGTATGCCT | 0.96
72 | CAGTGGTCAA | 1.01
73 | ACGGGTCGCG | 0.969
74 | ATCTCCGGCT | 1.07
75 | CCATTGGGGC | 0.884
76 | AGGCCGGAA | 1.05
77 | GGTTTGTCGC | 0.98
78 | TACTTCGGCG | 1.03

Row | Sequence | switch fluorescence ratio
79 | TGAGAGACGA | 0.987
80 | TCGATCATGT | 0.963
81 | GGTATTAACG | 0.999
82 | GTGTTCGT | 1.02
83 | ATTTTACATG | 0.982
84 | AGAGGGACGC | 0.939
85 | AAGTCACCTT | 1.1
86 | TAGTAGAGTA | 1.02
87 | GAGTATAGTC | 0.933
88 | CGTACGGAGC | 1.21
89 | CGTACTTCTA | 1.01
90 | TGCATATGCG | 0.98
91 | CGAGGAAAAA | 1.02
92 | AGACAGTAGC | 1.01
93 | CACCACACTA | 1.28
94 | GCTTTGGAGG | 1
95 | GCGGAGTTTG | 0.999
96 | CGCAAGTTTA | 1.08
97 | TTTTTATGTC | 1.03
98 | CGAGCGTGTT | 1.02
99 | TGATGATGCT | 0.951
100 | CGACAGCCAA | 3.67
101 | GTCGTCACTT | 1.02
102 | GCGCCGACTT | 1
103 | TTCTGCCTG | 1.01
104 | GAACTAGCGG | 1.02

Row | Sequence | switch fluorescence ratio
105 | TGATAATGGT | 0.99
106 | ACACAATGCC | 1.13
107 | CGTCTATTAA | 0.99
108 | CAATGGATGC | 1.1
109 | CGCATTGGAG | 1.04
110 | TGGAGCTACT | 2.43
111 | GACTCAGAAA | 1.28
112 | TTAGTGGGAT | 0.986
113 | GAAGCGGCTG | 1.08
114 | GAAGTCTCCG | 1.04
115 | GGAGCCCTAT | 1.04
116 | AGACGGCCA | 1.02
117 | GTTAGAGTAA | 0.978
118 | ATGAGTTTAA | 0.979
119 | TCTGGTTCCC | 1.02
120 | CCCGGTTAGG | 1.04
121 | ATTAGGCCAC | 0.999
122 | CAAACGCCCA | 1.25
123 | AAACGGAAGG | 0.993
124 | CTCCCGAAGT | 1.23
125 | TAATCGTAAT | 0.977
126 | TCGGCCTACC | 1.24
127 | GGTTGTTTAA | 0.956
128 | GGAGAATCAT | 1.01
129 | GAATCGGGTT | 0.976
130 | CTGATGG | 1

Row | Sequence | switch fluorescence ratio
131 | AGGTGATCCC | 1.03
132 | CATTACTC | 1.54
133 | TACTTTTTCG | 0.978
134 | CAGGACTACT | 1.05
135 | TTCGGCCTGC | 1.01
136 | GTGGCCCGTG | 1.03
137 | ACCTGTCTTT | 1.02
138 | AGGCATCAAG | 0.99
139 | AGCTTAAACG | 1.02
140 | GCATTTTTGC | 0.905
141 | ATAATCTC | 1.01
142 | AGTAGGTACC | 1
143 | TAAAACGGGT | 1.01
144 | TTCGAATAAA | 1.01
145 | GGGTGCCAGC | 1.02
146 | GGATGTGCAG | 1
147 | TAGGATTCGT | 1.05
148 | GGTGCCCTGA | 1.04
149 | GGTACAAAGC | 0.979
150 | CGCTAAGTG | 1.02
151 | GACTCTAACT | 1.05
152 | TCGGTAGCTT | 0.992
153 | GCTACCTAAG | 1.07
154 | ACTGACTATT | 1.12
155 | ACGTAAAGAG | 0.973
156 | TATACAGCCG | 0.991

Row | Sequence | switch fluorescence ratio
157 | TATATATGCG | 0.975
158 | CTGCCGTCG | 0.988
159 | TTTAATTCGG | 0.993
160 | TAAACACCCG | 1.13
161 | TCGTTGTTGT | 0.976
162 | ATTAGGGGG | 0.998
163 | TCTGCGCGTA | 1.05
164 | TCTCCACCTT | 1.59
165 | GAGCGGTAGG | 0.999
166 | TTAAGCGGTA | 1
167 | GGGGCTGCCT | 1.07
168 | TACTGAGCTT | 1.04
169 | ATTGTATTCA | 0.968
170 | AAAATATGCA | 0.943
171 | AGTTACTACA | 1.04
172 | TTTTGTCTAC | 1.06
173 | CGTTTATGGA | 1
174 | CGAGGTGCGT | 1.01
175 | AGGACAAAGT | 0.973
176 | CGATAGTGGG | 0.964
177 | ATTTGTTCGT | 0.978
178 | AGAAGGAG | 1
179 | ATAGTTTTAC | 0.967
180 | GGATGAAAAG | 0.986
181 | TTTGACTAGC | 0.991
182 | TAAACGAGTG | 0.987

Row | Sequence | switch fluorescence ratio
183 | AGTGTAAAAG | 1.03
184 | CTGGACACAC | 1.34
185 | AGGTCGCGC | 0.975
186 | CCGAGATGT | 1.1
187 | ACCGTGCTTC | 1.07
188 | TTATACTTTT | 1.02
189 | TTCATGCTG | 0.961
190 | GGCTACGTTG | 1.01
191 | CTCGGCTGTG | 1.05
192 | TAGTTTACAT | 1
193 | ATTGTAGATG | 1.02
194 | TGACCCGGCT | 1.01
195 | CTTGTATGGA | 0.97
196 | GTCGCGCTTT | 0.965
197 | AAAGAACAGA | 1.02
198 | GTGTCGGACA | 1.02
199 | GGAGGAAAG | 1.04
200 | ACAGTATATA | 1.11
201 | CGGATATTAG | 0.983
